# In the supplement of paper PMC8728848:
# Some of the results follow.
# B1: DrGal9 (Danio rerio) (protein)
# chain: MAFYQQPPYYNPRIPFSGPIQGGLQDGKSIIISGRVLPGANRFHVNLQCGSHSEANVALHFNPRYEDTDYVVNNSYLNRTWGSEERKYESPFAQGQTFTLQILVAQDKYKISTNGRHFMDYKHRIPFTQVDTVAVEGMVEVNSVAFQNPAGFIPPQAGYAPQYAVPPGCGFPAFPSAPNYTIPHKTVMNGGLHPGKNIVINGVVNPNAKSIIFNLCYRSGIAFHYNPRFDENVVVRNTNQMEKWGAEERFGGLPFHKGQPFQVTISCNPQHYNVFVNGKQEHTYKHRYTKLNDIDILEICGDLQLTSVQA
# Assays:
# Test in all cases: glycan array binding signal (z-score within array); higher = stronger binding
# Conditions in all cases: glycan notation: IUPAC condensed, linker removed
# [1] = target: GlcNAc(a1-6)Gal(b1-4)GlcNAc
# Summary of the method: (§1)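 Glycan array data were curated from 3228 arrays in the Consortium for Functional Glycomics database and kept only where the protein sequence was available. Glycan names were converted to IUPAC-condensed notation, and columns mapping to the same glycan were averaged. The binding signal is a within-array Z-score, averaged across arrays of the same protein sequence at different concentrations or buffers and across linkers. Negative Z-scores can be read as non-binding.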
# [2] = target: GlcNAc(b1-2)Gal(b1-3)GalNAc
# Summary of the method: as §1
# [3] = target: GlcNAc(b1-2)Man(a1-3)[GlcNAc(b1-2)Man(a1-6)]Man(b1-4)GlcNAc(b1-4)GlcNAc
# Summary of the method: as §1
# [4] = target: GlcNAc(b1-2)Man(a1-3)[GlcNAc(b1-2)Man(a1-6)]Man(b1-4)GlcNAc(b1-4)[Fuc(a1-6)]GlcNAc
# Summary of the method: as §1
# [5] = target: GlcNAc(b1-2)Man(a1-3)[GlcNAc(b1-4)][GlcNAc(b1-2)Man(a1-6)]Man(b1-4)GlcNAc(b1-4)GlcNAc
# Summary of the method: as §1
# [6] = target: GlcNAc(b1-2)Man(a1-3)[GlcNAc(b1-4)][GlcNAc(b1-2)Man(a1-6)]Man(b1-4)GlcNAc(b1-4)[Fuc(a1-6)]GlcNAc
# Summary of the method: as §1
# [7] = target: GlcNAc(b1-2)[GlcNAc(b1-4)]Man(a1-3)[GlcNAc(b1-2)Man(a1-6)]Man(b1-4)GlcNAc(b1-4)GlcNAc
# Summary of the method: as §1
# [8] = target: GlcNAc(b1-2)[GlcNAc(b1-4)]Man(a1-3)[GlcNAc(b1-4)][GlcNAc(b1-2)Man(a1-6)]Man(b1-4)GlcNAc(b1-4)GlcNAc
# Summary of the method: as §1
# [9] = target: GlcNAc(b1-2)[GlcNAc(b1-4)]Man(a1-3)[GlcNAc(b1-4)][GlcNAc(b1-2)[GlcNAc(b1-6)]Man(a1-6)]Man(b1-4)GlcNAc(b1-4)GlcNAc
# Summary of the method: as §1
# [10] = target: GlcNAc(b1-2)[GlcNAc(b1-4)]Man(a1-3)[GlcNAc(b1-4)][GlcNAc(b1-2)[GlcNAc(b1-6)]Man(a1-6)]Man(b1-4)GlcNAc(b1-4)[Fuc(a1-6)]GlcNAc
# Summary of the method: as §1
# [11] = target: GlcNAc(b1-2)[GlcNAc(b1-6)]Man(a1-6)[GlcNAc(b1-2)Man(a1-3)]Man(b1-4)GlcNAc(b1-4)GlcNAc
# Summary of the method: as §1
# [12] = target: GlcNAc(b1-2)[GlcNAc(b1-6)]Man(a1-6)[GlcNAc(b1-2)Man(a1-3)]Man(b1-4)GlcNAc(b1-4)[Fuc(a1-6)]GlcNAc
# Summary of the method: as §1
# [13] = target: GlcNAc(b1-2)[GlcNAc(b1-6)]Man(a1-6)[GlcNAc(b1-4)][GlcNAc(b1-2)Man(a1-3)]Man(b1-4)GlcNAc(b1-4)GlcNAc
# Summary of the method: as §1
# GlcNAc(b1-3)Fuc = target: GlcNAc(b1-3)Fuc
# Summary of the method: as §1
# GlcNAc(b1-3)Gal = target: GlcNAc(b1-3)Gal
# Summary of the method: as §1
# [14] = target: GlcNAc(b1-3)Gal(b1-3)GalNAc
# Summary of the method: as §1
# GlcNAc(b1-3)Gal(b1-4)Glc = target: GlcNAc(b1-3)Gal(b1-4)Glc
# Summary of the method: as §1
# [15] = target: GlcNAc(b1-3)Gal(b1-4)GlcNAc
# Summary of the method: as §1
# [16] = target: GlcNAc(b1-3)Gal(b1-4)GlcNAc(b1-2)Man(a1-3)[GlcNAc(b1-3)Gal(b1-4)GlcNAc(b1-2)Man(a1-6)]Man(b1-4)GlcNAc(b1-4)GlcNAc
# Summary of the method: as §1
# [17] = target: GlcNAc(b1-3)Gal(b1-4)GlcNAc(b1-2)Man(a1-3)[GlcNAc(b1-3)Gal(b1-4)GlcNAc(b1-2)Man(a1-6)]Man(b1-4)GlcNAc(b1-4)[Fuc(a1-6)]GlcNAc
# Summary of the method: as §1
# [18] = target: GlcNAc(b1-3)Gal(b1-4)GlcNAc(b1-2)[GlcNAc(b1-3)Gal(b1-4)GlcNAc(b1-6)]Man(a1-6)[GlcNAc(b1-3)Gal(b1-4)GlcNAc(b1-2)Man(a1-3)]Man(b1-4)GlcNAc(b1-4)GlcNAc
# Summary of the method: as §1
# [19] = target: GlcNAc(b1-3)Gal(b1-4)GlcNAc(b1-3)Gal(b1-4)GlcNAc
# Summary of the method: as §1
# [20] = target: GlcNAc(b1-3)Gal(b1-4)GlcNAc(b1-3)Gal(b1-4)GlcNAc(b1-2)Man(a1-3)[GlcNAc(b1-3)Gal(b1-4)GlcNAc(b1-3)Gal(b1-4)GlcNAc(b1-2)Man(a1-6)]Man(b1-4)GlcNAc(b1-4)GlcNAc
# Summary of the method: as §1
# [21] = target: GlcNAc(b1-3)Gal(b1-4)GlcNAc(b1-3)Gal(b1-4)GlcNAc(b1-2)Man(a1-3)[GlcNAc(b1-3)Gal(b1-4)GlcNAc(b1-3)Gal(b1-4)GlcNAc(b1-2)Man(a1-6)]Man(b1-4)GlcNAc(b1-4)[Fuc(a1-6)]GlcNAc
# Summary of the method: as §1
# [22] = target: GlcNAc(b1-3)Gal(b1-4)GlcNAc(b1-3)Gal(b1-4)GlcNAc(b1-2)[GlcNAc(b1-3)Gal(b1-4)GlcNAc(b1-3)Gal(b1-4)GlcNAc(b1-6)]Man(a1-6)[GlcNAc(b1-3)Gal(b1-4)GlcNAc(b1-3)Gal(b1-4)GlcNAc(b1-2)Man(a1-3)]Man(b1-4)GlcNAc(b1-4)[Fuc(a1-6)]GlcNAc
# Summary of the method: as §1
# [23] = target: GlcNAc(b1-3)Gal(b1-4)GlcNAc(b1-3)Gal(b1-4)GlcNAc(b1-3)Gal(b1-4)GlcNAc(b1-2)Man(a1-3)[GlcNAc(b1-3)Gal(b1-4)GlcNAc(b1-3)Gal(b1-4)GlcNAc(b1-3)Gal(b1-4)GlcNAc(b1-2)Man(a1-6)]Man(b1-4)GlcNAc(b1-4)GlcNAc
# Summary of the method: as §1
# [24] = target: GlcNAc(b1-3)Gal(b1-4)GlcNAc(b1-3)Gal(b1-4)GlcNAc(b1-3)Gal(b1-4)GlcNAc(b1-2)Man(a1-3)[GlcNAc(b1-3)Gal(b1-4)GlcNAc(b1-3)Gal(b1-4)GlcNAc(b1-3)Gal(b1-4)GlcNAc(b1-2)Man(a1-6)]Man(b1-4)GlcNAc(b1-4)[Fuc(a1-6)]GlcNAc
# Summary of the method: as §1
# [25] = target: GlcNAc(b1-3)Gal(b1-4)GlcNAc(b1-3)Gal(b1-4)GlcNAc(b1-3)Gal(b1-4)GlcNAc(b1-2)[GlcNAc(b1-3)Gal(b1-4)GlcNAc(b1-3)Gal(b1-4)GlcNAc(b1-3)Gal(b1-4)GlcNAc(b1-6)]Man(a1-6)[GlcNAc(b1-3)Gal(b1-4)GlcNAc(b1-3)Gal(b1-4)GlcNAc(b1-3)Gal(b1-4)GlcNAc(b1-2)Man(a1-3)]Man(b1-4)GlcNAc(b1-4)[Fuc(a1-6)]GlcNAc
# Summary of the method: as §1
# [26] = target: GlcNAc(b1-3)Gal(b1-4)GlcNAc(b1-3)Gal(b1-4)GlcNAc(b1-3)Gal(b1-4)GlcNAc(b1-3)Gal(b1-4)GlcNAc(b1-2)Man(a1-3)[GlcNAc(b1-3)Gal(b1-4)GlcNAc(b1-3)Gal(b1-4)GlcNAc(b1-3)Gal(b1-4)GlcNAc(b1-3)Gal(b1-4)GlcNAc(b1-2)Man(a1-6)]Man(b1-4)GlcNAc(b1-4)GlcNAc
# Summary of the method: as §1
# [27] = target: GlcNAc(b1-3)Gal(b1-4)GlcNAc(b1-3)Gal(b1-4)GlcNAc(b1-3)Gal(b1-4)GlcNAc(b1-3)Gal(b1-4)GlcNAc(b1-2)Man(a1-3)[GlcNAc(b1-3)Gal(b1-4)GlcNAc(b1-3)Gal(b1-4)GlcNAc(b1-3)Gal(b1-4)GlcNAc(b1-3)Gal(b1-4)GlcNAc(b1-2)Man(a1-6)]Man(b1-4)GlcNAc(b1-4)[Fuc(a1-6)]GlcNAc
# Summary of the method: as §1
# [28] = target: GlcNAc(b1-3)Gal(b1-4)GlcNAc(b1-3)Gal(b1-4)GlcNAc(b1-3)Gal(b1-4)GlcNAc(b1-3)Gal(b1-4)GlcNAc(b1-2)[GlcNAc(b1-3)Gal(b1-4)GlcNAc(b1-3)Gal(b1-4)GlcNAc(b1-3)Gal(b1-4)GlcNAc(b1-3)Gal(b1-4)GlcNAc(b1-6)]Man(a1-6)[GlcNAc(b1-3)Gal(b1-4)GlcNAc(b1-3)Gal(b1-4)GlcNAc(b1-3)Gal(b1-4)GlcNAc(b1-3)Gal(b1-4)GlcNAc(b1-2)Man(a1-3)]Man(b1-4)GlcNAc(b1-4)[Fuc(a1-6)]GlcNAc
# Summary of the method: as §1
# [29] = target: GlcNAc(b1-3)Gal(b1-4)GlcNAc(b1-3)Gal(b1-4)GlcNAc(b1-3)GalNAc
# Summary of the method: as §1
# [30] = target: GlcNAc(b1-3)Gal(b1-4)GlcNAc(b1-3)GalNAc
# Summary of the method: as §1
# [31] = target: GlcNAc(b1-3)Gal(b1-4)GlcNAc(b1-3)[GlcNAc(b1-3)Gal(b1-4)GlcNAc(b1-3)]GalNAc
# Summary of the method: as §1
# [32] = target: GlcNAc(b1-3)Gal(b1-4)GlcNAc(b1-6)[Gal(b1-3)]GalNAc
# Summary of the method: as §1
# [33] = target: GlcNAc(b1-3)Gal(b1-4)GlcNAc(b1-6)[GlcNAc(b1-3)Gal(b1-3)]GalNAc
# Summary of the method: as §1
# [34] = target: GlcNAc(b1-3)Gal(b1-4)GlcNAc(b1-6)[GlcNAc(b1-3)]Gal(b1-4)GlcNAc
# Summary of the method: as §1
binder,measurement,setting,value
B1,glycan array binding signal (z-score),[1],-0.386
same,glycan array binding signal (z-score),[2],-0.35
same,glycan array binding signal (z-score),[3],-0.404
same,glycan array binding signal (z-score),[4],-0.376
same,glycan array binding signal (z-score),[5],-0.412
same,glycan array binding signal (z-score),[6],-0.41
same,glycan array binding signal (z-score),[7],-0.39
same,glycan array binding signal (z-score),[8],-0.39
same,glycan array binding signal (z-score),[9],-0.399
same,glycan array binding signal (z-score),[10],-0.386
same,glycan array binding signal (z-score),[11],-0.386
same,glycan array binding signal (z-score),[12],-0.367
same,glycan array binding signal (z-score),[13],-0.402
same,glycan array binding signal (z-score),GlcNAc(b1-3)Fuc,-0.373
same,glycan array binding signal (z-score),GlcNAc(b1-3)Gal,-0.41
same,glycan array binding signal (z-score),[14],-0.365
same,glycan array binding signal (z-score),GlcNAc(b1-3)Gal(b1-4)Glc,-0.01
same,glycan array binding signal (z-score),[15],-0.219
same,glycan array binding signal (z-score),[16],1.73
same,glycan array binding signal (z-score),[17],3.01
same,glycan array binding signal (z-score),[18],1.55
same,glycan array binding signal (z-score),[19],0.059
same,glycan array binding signal (z-score),[20],1.17
same,glycan array binding signal (z-score),[21],3.13
same,glycan array binding signal (z-score),[22],1.24
same,glycan array binding signal (z-score),[23],2.71
same,glycan array binding signal (z-score),[24],2.48
same,glycan array binding signal (z-score),[25],1.84
same,glycan array binding signal (z-score),[26],2.55
same,glycan array binding signal (z-score),[27],2.18
same,glycan array binding signal (z-score),[28],2.39
same,glycan array binding signal (z-score),[29],0.226
same,glycan array binding signal (z-score),[30],-0.008
same,glycan array binding signal (z-score),[31],0.363
same,glycan array binding signal (z-score),[32],0.098
same,glycan array binding signal (z-score),[33],-0.233
same,glycan array binding signal (z-score),[34],0.084
